Assay results as given in patent publication US20160184404A1, “NOVEL HEMOGLOBIN-DERIVED PEPTIDE BASED PHARMACEUTICAL COMPOSITIONS” (CLINIQUE LA PRAIRIE, priority 2014, published 2016).

Assays:
[1] = tested on: Human MNC; assay: Stimulation of human MNC with MPLA in the presence of Hb-derived peptides, cytokine ELISA of supernatant; assay type: cell-based; details: MPLA 3 μg/ml; for synergistic activity with MPLA, IL-6 release / synergistic effect with MPLA in the absence and presence of human serum, IL-6 release: peptide 1, 3, 10 μM; for synergistic activity with MPLA, IL-6 release: 20 h, FIG. 7, 10, 12, 15, 16, 29; for synergistic effect with MPLA in the absence and presence of human serum, IL-6 release: with or without 10% human serum, FIG. 8, 14; for effect of alanine replacement on the synergistic activity of Hbg-35 with MPLA, IL-6 release: alanine-scan, peptide 3 μM, FIG. 18
Description: Human mononuclear cells (MNC) were isolated from peripheral blood of healthy donors by density-gradient centrifugation on Ficoll gradient media (PAA Laboratories GmbH, Pasching, Austria). The cells were suspended and cultured in RPMI-1640 medium, containing […]. 50 μl of a peptide solution were incubated with 50 μl of a MPLA solution in a U-form 96 well micro cell culture plate #3799 (Corning Costar GmbH, Bodenheim, Germany) for 15 min at 37° C. After this incubation period 20 μl of heat-inactivated (56° C./30 min) human serum or RPMI-1640 medium were added. Finally, 80 μl of a MNC cell suspension was added to give a final concentration of 1 to 2×10^6 cells for culture in the absence of human serum or 1×10^6 cells for culture in the presence of serum. After a culture time of 20 h the cells were spun down and the culture supernatants were harvested. The cytokine concentrations in the supernatants were determined by matched antibody pairs for ELISA obtained from Invitrogen GmbH, Darmstadt (Germany). Mostly, each value represents the mean±SD of duplicate culture. In FIG. 3 the mean of three independent experiments is given, each of these three independent experiments having duplicate cultures.

[2] = tested on: Purified human monocytes; assay: Stimulation of purified human monocytes with MPLA in the presence of Hbγ1-peptides, IL-6 ELISA; assay type: cell-based; details: MPLA 1 μg/ml; peptide 1, 3, 10 μM; FIG. 9
Description: FIG. 9: Synergistic effect of Hbg-23 and Hbg-32 peptide on stimulation of human monocytes with MPLA. Purified human monocytes (>95%) were stimulated with MPLA (1 μg/ml) in the presence or absence of the Hbγ1-peptides Hbg-23 and Hbg-32-107 (1, 3 and 10 μM). Control cultures were kept without MPLA. After a culture period of 20 h, the IL-6 concentration in the supernatant was determined by ELISA. Each value represents the mean±SD of duplicate cultures.
Human mononuclear cells (MNC) were isolated from peripheral blood of healthy donors by density-gradient centrifugation on Ficoll gradient media (PAA Laboratories GmbH, Pasching, Austria). The cells were suspended and cultured in RPMI-1640 medium, containing […]. 50 μl of a peptide solution were incubated with 50 μl of a MPLA solution in a U-form 96 well micro cell culture plate #3799 (Corning Costar GmbH, Bodenheim, Germany) for 15 min at 37° C. After this incubation period 20 μl of heat-inactivated (56° C./30 min) human serum or RPMI-1640 medium were added. […] The cytokine concentrations in the supernatants were determined by matched antibody pairs for ELISA obtained from Invitrogen GmbH, Darmstadt (Germany). […]

[3] = tested on: Human MNC; assay: Stimulation of human MNC with LPS in the presence of Hbg-32, IL-6 ELISA; assay type: cell-based; details: LPS 1 ng/ml; peptide 1, 3, 10 μM; FIG. 12
[4] = Small angle X-ray scattering (SAXS) of MPLA aggregates; assay type: physicochemical; details: MPLA alone or in the presence of peptide; 40° C.; FIG. 22
Description: SAXS measurements were performed at the European Molecular Biology Laboratory (EMBL) outstation at the Hamburg synchrotron radiation facility HASYLAB using the camera X33. Diffraction patterns in the range of the scattering vector 0.1<s<1.0 nm^−1 (s=2 sin θ/λ, 2θ scattering angle and A the wavelength=0.15 nm) were recorded at 40° C. with exposure times of 1 min using an image plate detector with online readout (MAR345, MarResearch, Norderstedt/Germany). The lipid concentration was in all cases 20 mM. The s-axis was calibrated with Ag-behenate, which has a periodicity of […]. The diffraction patterns were evaluated as described previously (Howe et al. (2008a)), assigning the spacing ratios of the main scattering maxima to defined three-dimensional structures. The lamellar and cubic structures are the most relevant here. The following features characterize the supramolecular structure: • (1) lamellar: The reflections are grouped in equidistant ratios, i.e., 1, ½, ⅓, ¼, etc. of the • lamellar repeat distance dλ; • (2) cubic: The different space groups of these non-lamellar three-dimensional structures differ in the ratio of their spacings. The relation between reciprocal spacing shkl=1/dhkl and lattice constant a is
shkl=[(h^2+k^2+l^2)/a]^1/2 • (hkl=Miller indices of the corresponding set of plane).

[5] = Förster resonance energy transfer spectroscopy (FRET), intercalation into MPLA aggregates; assay type: physicochemical
[6] = Laser light scattering of MPLA suspensions; assay type: physicochemical; details: MPLA 0.1 mM + Hbg-32 0.1 mM; FIG. 24
[7] = Freeze-fracture transmission electron microscopy of MPLA; assay type: physicochemical; details: MPLA 1 mM alone or with equimolar peptide; FIG. 25
Description: A small amount of the samples was sandwiched between two copper profiles and frozen by plunging the sandwiches immediately into liquefied ethane-propane-mixture cooled in liquid nitrogen. Fracturing and replication were performed at −150° C. in a BAF 400T freeze-fracture device (BAL-TEC, Balzers, Liechtenstein) equipped with electron guns and a film sheet thickness monitor. For replication Pt(C) was evaporated under an angle of 35° and (C) under 90°. The replicas were placed on copper grids and cleaned with a chloroform-methanol mixture.

[8] = Atomic force microscopy of MPLA dispersions; assay type: physicochemical
Description: Atomic force microscopy (AFM) allows a direct look onto the morphology of lipid aggregates on a molecular scale under almost physiological conditions. This allows obtaining depth profiles of MPLA dispersions down to a resolution limit of lower than 1 nm. For the analysis, MPLA dispersions were prepared at a concentration of 25 μM in physiological saline in the absence and presence of an equimolar content of Hbg-32.

[9] = tested on: Human MNC; assay: Stimulation of human MNC with synthetic lipopeptides (Pam3C-SK4, FSL-1) in the presence of Hbg-35, IL-6 ELISA; assay type: cell-based; details: Pam3C-SK4 10 nM or FSL-1 1 nM; peptide 1, 3, 10 μM; FIG. 30
[10] = tested on: human memory T-cell; assay: Stimulation of memory T-cells in human MNC with recall antigens PPD and TT, 3H-thymidine incorporation; assay type: cell-based; details: MPLA 10 ng/ml; peptide 1 or 3 μM; FIG. 21
Description: For stimulation of T-lymphocytes, human MNC were cultured in RPMI-1640 medium, containing […], and 10% of inactivated human serum at a concentration of 0.5 to 1.0×10^6 cells per ml in flat-bottom 96-well tissue culture plates. To investigate the adjuvant effect of MPLA and Hbg-peptides, the recall antigens tetanus toxoid (TT) and purified protein derivatives of M. tuberculosis (PPD) (both from Statens Serum Institute, Copenhagen, Danmark) were used. After 6 days of culture, cells were labeled with ^3H-Thymidine (3HTdR (2 Ci/mmol, 0.2 μCi/culture)) and after an additional day of culture the cells were harvested on glass-filter mats for measurement of incorporated radioactivity into the DNA. The results are expressed as mean±SD of duplicate cultures.
There is a close interaction between the innate immune system, as presented by e.g. monocytes and dendritic cells, and the adaptive immune system, as presented by T-lymphocytes and B-lymphocytes. Monocytes and dendritic cells present antigenic fragments to the cells of the adaptive immune system to initiate a specific immune reaction. In addition, they support the strength and polarization of the immune response by means of the release of cytokines. […]

[11] = Fourier-transform infrared spectroscopy, amide I band, secondary structure; assay type: physicochemical

TVLAIHFGKEFTPEVQASWQKMVTAVASAQ (Hbg-32)
synergistic activity with MPLA compared with native Hbγ1 chain, IL-8 release ([1]; 3 and 10 μM, FIG. 13): higher synergistic activity | synergistic activity with MPLA, IL-6 release [1]: synergically enhanced | synergistic activity with MPLA, IL-6 release ([1]; listed as Hbg-32-107): increased synergistic effects | synergistic activity with MPLA, IL-6 release ([1]; listed as Hbg-32-108): synergistic effects comparable to Hbg-32-107 | synergistic activity with MPLA, IL-6 release ([1]; listed as Hbg-32-KB): synergistic effects comparable to Hbg-32-107 | synergistic effect with MPLA in the absence and presence of human serum, IL-6 release [1]: synergistic effects in the absence as well as in the presence of human serum | synergistic effect with MPLA on IL-1β, IL-6, IL-8 and TNFα release ([1]; peptide 3, 10 μM, FIG. 11): also found with respect to IL-1β and TNFα release | synergism with MPLA in stimulating purified human monocytes, IL-6 release [2]: synergize with MPLA | synergistic enhancement of LPS immunostimulatory activity, IL-6 release [3]: synergically enhanced | aggregate structure of MPLA (SAXS) [4]: converted into one with cubic symmetry | intercalation of the peptide into MPLA aggregates (FRET) ([5]; [MPLA]:[Hbg-32] molar ratio 10:1): considerable intercalation | intercalation of the peptide into MPLA aggregates (FRET) ([5]; equimolar concentration): much more pronounced | effect of peptide on MPLA aggregation (laser light scattering) [6]: clear disaggregating effect | morphology of MPLA aggregates (freeze-fracture electron microscopy) [7]: these aggregates are dispersed and become more spherical | part of the plane showing bilayered structures (AFM) ([8]; MPLA 25 μM + equimolar peptide): More than 90% | thickness of bilayered structures (AFM) ([8]; MPLA 25 μM + equimolar peptide): approximately 5 nm | maximum heights of the MPLA assembly (AFM) ([8]; MPLA 25 μM + equimolar peptide, FIG. 26B): up to 10 nm | morphology of MPLA aggregates (AFM) ([8]; MPLA 25 μM on mica, alone or with equimolar peptide, after one hour): tightly packed layers disaggregate dramatically

Hbg-55: Hbg-35 alanine-scan peptide, replacement of Val126/Ala (TVLAIHFGKEFTPEAQASWQKMVTAVASAL; Hbg-55)
effect of alanine replacement on the synergistic activity of Hbg-35 with MPLA, IL-6 release [1]: abolished the synergistic effects

Hbg-54: Hbg-35 alanine-scan peptide, replacement of Glu125/Ala (TVLAIHFGKEFTPAVQASWQKMVTAVASAL; Hbg-54)
effect of alanine replacement on the synergistic activity of Hbg-35 with MPLA, IL-6 release [1]: abolished the synergistic effects

TVLAIHFGKEFTPEVQASWQKMVTAVASAL (Hbg-35)
synergistic effect with MPLA in the absence and presence of human serum, IL-6 release [1]: resembled the synergism mediated by Hbg-32 | synergistic activity with synthetic lipopeptides, IL-6 release [9]: synergistic activity | effect on the adjuvant effect of MPLA on PPD and TT induced T-lymphocyte proliferation [10]: enhanced | influence of MPLA addition on the peptide's secondary structure (FTIR) ([11]; Hbγ35:MPLA 1:1 molar): does not influence the peptide's secondary structure | secondary structure of the peptide (FTIR) ([11]; peptide alone and 1:1 molar with MPLA, FIG. 28): main α-helical structure and a minor β-sheet component | main absorbance maximum, amide I band ([11]; peptide alone and with MPLA): around 1659 cm^−1 | second peak, amide I band ([11]; peptide alone and with MPLA): around 1628 cm^−1

TVLAIHFGKEFTPEVQASWQKMVTGVASAL (Hbg2-70)
synergistic activity with MPLA, IL-6 release [1]: synergistically active in a similar range as Hbg-35-146m
